# Experimental data reported in the supplement of paper PMC3334620.
# The full ranking holds about 33,000 sequences; the median of “E-score (-0.5 to 0.5)” is about -0.035, and the highest 2% start at about 0.34. Some of the results follow.
# Target: T1, Mot3 (UniProt P54785)
# T1 sequence: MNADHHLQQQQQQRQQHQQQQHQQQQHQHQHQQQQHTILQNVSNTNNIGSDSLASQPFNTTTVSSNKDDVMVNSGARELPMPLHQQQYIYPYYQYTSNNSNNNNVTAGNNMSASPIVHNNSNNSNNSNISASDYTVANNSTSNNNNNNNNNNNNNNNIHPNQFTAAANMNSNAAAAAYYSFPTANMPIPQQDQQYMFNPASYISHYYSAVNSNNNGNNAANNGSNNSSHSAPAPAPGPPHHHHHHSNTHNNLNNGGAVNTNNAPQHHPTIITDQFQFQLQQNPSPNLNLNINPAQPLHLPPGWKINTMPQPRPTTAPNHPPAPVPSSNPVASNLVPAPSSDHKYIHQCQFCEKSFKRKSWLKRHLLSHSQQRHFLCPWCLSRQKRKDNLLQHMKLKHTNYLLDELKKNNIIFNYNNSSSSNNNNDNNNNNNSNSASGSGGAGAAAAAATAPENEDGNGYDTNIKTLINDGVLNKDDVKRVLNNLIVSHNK
# Experiment: PBM E-score (8-mer binding enrichment) (E-score (-0.5 to 0.5)); higher = stronger / more preferred TF binding; most listed sequences are background and not binding sites
# Settings: protein concentration: 200 nM; construct: GST-full length
# Description: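 Universal 'all 10-mer' protein binding microarrays (Agilent AMADID 015681) probed with GST-tagged S. cerevisiae TFs (full-length or DBD) made by in vitro transcription/translation (PURExpress), about 100-200 nM. Bound TF was detected with fluorescent anti-GST. Each ungapped 8-mer (which stands for itself and its reverse complement) is scored by the PBM enrichment score (E-score), a modified Wilcoxon-Mann-Whitney statistic from -0.5 to +0.5, computed with the Universal PBM Analysis Suite. Scale: above 0.35 generally sequence-specific binding.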
row,Sequence,PBM E-score
1,CCCTTGTC,-0.034
2,GGAGATAA,-0.0459
3,ATAGTGCC,0.261
4,AAGCAATG,-0.0928
5,CCTTTAAA,0.266
6,GCGACGAA,-0.154
7,ACGTAAAA,0.329
8,AAGAGATT,0.0716
9,TAAGGCTA,0.129
10,TATTAGGA,0.142
11,ATCGGCCC,-0.265
12,AAACAGAA,-0.0905
13,CCTCACTA,-0.0744
14,CTTCCAGA,-0.146
15,CTCATACA,0.0711
16,CGGCGTAA,0.104
17,AATTCCAA,0.0626
18,CCCTCGCA,-0.283
19,GGTCAAAC,0.0509
20,GCAACTGA,0.0162
21,GCTCAGAA,-0.0723
22,GTCGGAAC,-0.147
23,ACACGCAG,0.313
24,GGGATAAA,0.0287
25,GCTCCTAA,0.118

row,Sequence,PBM E-score
1,AGGATCCC,-0.108
2,GCATCCGC,-0.0154
3,ACGCCTGC,0.253
4,ACTTTAAG,-0.0466
5,CCTTTTGC,0.0699
6,ACCTGAGT,-0.00423
7,CGACCTTC,-0.346
8,AGGCCTTC,-0.154
9,ACTGGCAG,-0.0433
10,GATCTCGA,-0.123
11,AGATACAG,0.0787
12,GCATGTGA,0.232
13,CGACAGCA,-0.178
14,GTCGCATA,0.0611
15,GACATGCA,0.203
16,ATGGGTCG,-0.251
17,TGATATAA,0.0684
18,ACTGCTTG,0.0373
19,ACTACAGA,0.0825
20,ATCCCCTG,-0.332
21,CGTCAGTA,-0.27
22,AAAACGAG,0.0748
23,AGGTTTAA,-0.00778
24,CCGGCGAG,-0.369
25,GAGGGAGC,-0.142

row,Sequence,PBM E-score
1,TAGGGAGA,-0.28
2,AGGCGTGC,0.122
3,AGACTATC,-0.0723
4,ATTCAGTG,-0.0973
5,ACAGTAGG,0.134
6,AGCGCACG,0.00399
7,AAGCCATC,-0.0287
8,ATGCTGAA,-0.0335
9,GTCATCAC,-0.171
10,AATATTAG,0.15
11,GCCTCTCC,-0.175
12,GAACACAA,0.256
13,ATCGCGCA,-0.109
14,CACGTCCA,-0.0793
15,AGACCTGA,-0.139
16,TCCTTAGA,-0.0361
17,CAGCCGAC,-0.121
18,ATTAGTTA,0.115
19,AGACAAAT,0.0163
20,CTTCGCTA,-0.0461
21,TCAGAGAA,-0.0316
22,AGGCTAAG,-0.266
23,CGATTACC,-0.0307
24,CATATAAG,0.0246
25,ACCGTATC,-0.348

row,Sequence,PBM E-score
1,CGTGAACC,-0.136
2,CTAATGCC,-0.174
3,GGTATCGA,-0.093
4,ACCTCACG,0.00143
5,AGAGGATG,-0.136
6,AACACAGG,0.275
7,GTAACAAA,0.167
8,CACTGACC,-0.14
9,CTCTCAAC,-0.0574
10,GCCTCTTA,-0.0795
11,CTTCGGTA,-0.201
12,AGTTCGAA,0.0616
13,GCTGTGCC,0.249
14,CCAATAAG,0.00438
15,GAGCTACC,-0.0489
16,GTATCCGA,-0.0401
17,CCACGGAA,-0.101
18,GAAGTCGC,-0.052
19,ACGCCTTA,0.185
20,GAGAAGCC,-0.193
21,TGCCCGAA,-0.0549
22,AATACCGC,-0.0278
23,CCACTAGG,-0.224
24,CTTCATAA,-0.082
25,GGTCGCAC,-0.104

row,Sequence,PBM E-score
1,CGACAACA,0.197
2,ATTTTCCA,-0.0526
3,CATTGACC,0.0128
4,GGGTCCTA,-0.159
5,ACTTCCAT,0.00123
6,CGGGGGTC,-0.155
7,AAATACAA,0.281
8,CGGACACG,-0.117
9,AACTGTAG,0.0868
10,AAGTATCC,-0.0961
11,GGGAACCC,-0.279
12,CATGAAAA,0.137
13,CGACGAGA,-0.0757
14,CCGGCTCG,-0.366
15,GCCTGTAC,0.338
16,CACTTCGC,-0.0817
17,CCATCAAC,0.175
18,CAATGAAG,0.157
19,AATAGTAT,0.108
20,AACAGAGA,-0.103
21,ATGGGGCC,-0.277
22,CTATGTTC,0.217
23,ACACTAGC,-0.024
24,AACGGTTA,0.00042
25,AACTTATT,0.0869

row,Sequence,PBM E-score
1,AGACCACT,-0.0279
2,AATAAGTC,-0.114
3,GCCAGCGA,-0.121
4,AATTCTGC,-0.0278
5,GAGTGGGC,-0.277
6,AAGCGGCG,-0.104
7,CCGACTCG,-0.149
8,AGATTTGG,-0.246
9,TACATCAA,0.209
10,CACAACCA,0.0953
11,CGGCGTGC,-0.145
12,GGGCTAAC,-0.112
13,AACTCATC,0.124
14,CACGCTAG,0.0307
15,CCGAAACC,-0.196
16,ACTCCATG,-0.134
17,AGAATCAA,-0.0862
18,CCGTTCAA,-0.0267
19,AACGGAAG,0.0569
20,GTAATCCA,0.225
21,AACACTGA,0.157
22,CTATTGCC,0.231
23,GCAGAGCC,-0.173
24,CCTCTGGC,-0.306
25,AGGGAGAC,-0.16

row,Sequence,PBM E-score
1,ACGTGGAA,-0.046
2,TTCGAAAA,0.0802
3,AGGATGAG,-0.0928
4,TAGCAGAA,0.0832
5,ATTTAGCA,0.111
6,ACCAAGAA,0.0562
7,CGCGAATC,0.0363
8,AAGTAGTA,0.112
9,ATACTCCC,-0.0986
10,CATCTGCA,-0.0636
11,GGATCCCC,-0.367
12,CTTGGCCC,-0.38
13,GTGCTACA,0.178
14,AGCTTGTG,-0.00177
15,GTTGCCCA,0.103
16,ATCAGTGC,-0.00075
17,CTGAGAGA,-0.301
18,ATGAAGTG,-0.204
19,GTAACCGA,0.145
20,ACCTCCAG,-0.0604
21,CGACAGGC,0.217
22,ACGGGTAG,0.0227
